By IC50 is meant the dose at which the fit gives 50% viability; a limit (>, <) means that the fit lies beyond the doses tested. For AUC the same curve is integrated over the 256-fold range of doses and scaled to a fraction; the more sensitive the line, the further below 1. For some of these results: Any top dose called inferred was calculated from the reported fits.
What was measured:
Experiment in all cases: Viability of human cancer cell lines after 72 h of drug (GDSC screen)
Obatoclax mesylate = compound: COC1=CC(c2cc3ccccc3[nH]2)=N/C1=C\c1[nH]c(C)cc1C [Obatoclax mesylate]; conditions: top dose 16 µM
Protocol: (§1)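 Human cancer cell lines in 384-well plates, medium with 10% serum, drug for 72 h over a 256-fold dose range (nine 2-fold or five 4-fold steps up to the top dose). Adherent lines were fixed and stained with the nucleic acid dye Syto60, suspension lines read with resazurin; signal relative to control wells, capped at 0 and 100%. One two-parameter sigmoid per drug and line, fitted in a mixed model over all curves with the slope shared within a line.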

CP724714 = compound: COCC(=O)NC/C=C/c1ccc2ncnc(Nc3ccc(Oc4ccc(C)nc4)c(C)c3)c2c1 [CP724714]; conditions: top dose 10.24 µM; top dose inferred
Protocol: as §1

STF-62247 = compound: Cc1cccc(Nc2nc(-c3ccncc3)cs2)c1 [STF-62247]; conditions: top dose 10.24 µM; top dose inferred
Protocol: as §1

CX-5461 = compound: Cc1cnc(CNC(=O)c2c(=O)c3ccc(N4CCCN(C)CC4)nc3n3c2sc2ccccc23)cn1 [CX-5461]; conditions: top dose 10.24 µM; top dose inferred
Protocol: as §1

Row | Cell Line | AUC (Obatoclax mesylate) | IC50 (Obatoclax mesylate) | AUC (CP724714) | IC50 (CP724714) | AUC (STF-62247) | IC50 (STF-62247) | AUC (CX-5461) | IC50 (CX-5461)
1 | NCI-H2170 (lung squamous cell carcinoma, adherent) | 0.259 | 0.197 µM | 0.952 | > 10.2 µM | 0.984 | > 10.2 µM | 0.952 | > 10.2 µM
2 | NCI-H2172 (non-small cell lung carcinoma, adherent) | 0.591 | 1.94 µM | 0.959 | > 10.2 µM | 0.981 | > 10.2 µM | 0.97 | > 10.2 µM
3 | NCI-H2228 (lung adenocarcinoma, adherent) | 0.458 | 0.727 µM | 0.976 | > 10.2 µM | 0.956 | > 10.2 µM | 0.907 | > 10.2 µM
4 | NCI-H2291 (lung adenocarcinoma, adherent) | 0.965 | > 16 µM | 0.981 | > 10.2 µM | 0.98 | > 10.2 µM | 0.984 | > 10.2 µM
5 | NCI-H2342 (lung adenocarcinoma, adherent) | 0.14 | 0.0636 µM | 0.969 | > 10.2 µM | 0.986 | > 10.2 µM | 0.985 | > 10.2 µM
6 | NCI-H2347 (lung adenocarcinoma, adherent) | 0.468 | 0.801 µM | 0.983 | > 10.2 µM | 0.972 | > 10.2 µM | 0.952 | > 10.2 µM
7 | NCI-H2405 (lung adenocarcinoma, adherent) | 0.293 | 0.242 µM | 0.977 | > 10.2 µM | 0.986 | > 10.2 µM | 0.976 | > 10.2 µM
8 | NCI-H2444 (non-small cell lung carcinoma, adherent) | 0.687 | 3.62 µM | 0.981 | > 10.2 µM | 0.987 | > 10.2 µM | 0.988 | > 10.2 µM
9 | NCI-H2452 (mesothelioma, adherent) | 0.868 | > 16 µM | 0.982 | > 10.2 µM | 0.979 | > 10.2 µM | 0.98 | > 10.2 µM
10 | NCI-H3122 (lung adenocarcinoma, adherent) | 0.26 | 0.2 µM | 0.971 | > 10.2 µM | 0.987 | > 10.2 µM | 0.804 | 5.31 µM
11 | NUGC-3 (stomach, adherent) | 0.154 | 0.0717 µM | 0.965 | > 10.2 µM | 0.976 | > 10.2 µM | 0.982 | > 10.2 µM
12 | NUGC-4 (stomach, adherent) | 0.058 | < 0.0625 µM | 0.962 | > 10.2 µM | 0.703 | 2.38 µM | 0.871 | 9.61 µM
13 | NY (osteosarcoma, adherent) | 0.21 | 0.142 µM | 0.988 | > 10.2 µM | 0.988 | > 10.2 µM | 0.986 | > 10.2 µM
14 | OAW-28 (ovary, adherent) | 0.3 | 0.233 µM | 0.973 | > 10.2 µM | 0.964 | > 10.2 µM | 0.98 | > 10.2 µM
15 | OAW-42 (ovary, adherent) | 0.272 | 0.211 µM | 0.973 | > 10.2 µM | 0.983 | > 10.2 µM | 0.969 | > 10.2 µM
16 | OCUM-1 (stomach, adherent) | 0.37 | 0.42 µM | 0.981 | > 10.2 µM | 0.986 | > 10.2 µM | 0.987 | > 10.2 µM
17 | OE19 (oesophagus, adherent) | 0.561 | 1.5 µM | 0.89 | > 10.2 µM | 0.984 | > 10.2 µM | 0.986 | > 10.2 µM
18 | OE21 (oesophagus, adherent) | 0.103 | < 0.0625 µM | 0.971 | > 10.2 µM | 0.973 | > 10.2 µM | 0.965 | > 10.2 µM
19 | OE33 (oesophagus, adherent) | 0.315 | 0.273 µM | 0.951 | > 10.2 µM | 0.938 | > 10.2 µM | 0.962 | > 10.2 µM
20 | OSC-19 (head and neck, adherent) | 0.2 | 0.123 µM | 0.969 | > 10.2 µM | 0.987 | > 10.2 µM | 0.984 | > 10.2 µM
21 | OSC-20 (head and neck, adherent) | 0.137 | < 0.0625 µM | 0.945 | > 10.2 µM | 0.97 | > 10.2 µM | 0.909 | > 10.2 µM
22 | OV-90 (ovary, adherent) | 0.393 | 0.467 µM | 0.966 | > 10.2 µM | 0.973 | > 10.2 µM | 0.979 | > 10.2 µM
23 | OVCAR-3 (ovary, adherent) | 0.402 | 0.523 µM | 0.987 | > 10.2 µM | 0.987 | > 10.2 µM | 0.987 | > 10.2 µM
24 | OVCAR-5 (ovary, adherent) | 0.395 | 0.484 µM | 0.981 | > 10.2 µM | 0.981 | > 10.2 µM | 0.969 | > 10.2 µM
25 | OVCAR-8 (ovary, adherent) | 0.109 | 0.0654 µM | 0.981 | > 10.2 µM | 0.982 | > 10.2 µM | 0.552 | 0.871 µM
26 | OVISE (ovary, adherent) | 0.351 | 0.337 µM | 0.959 | > 10.2 µM | 0.91 | > 10.2 µM | 0.853 | > 10.2 µM

Reference: the supplement of paper PMC4967469
